Out of some 110,000 compounds screened, about 230 (0.21%) showed an effect of 50% or more. This is one part of the list.
These molecules were tested against DPAP1 (Plasmodium falciparum, UniProt Q8IIJ9) (assay: primary screen, percent inhibition; read by cleavage of a fluorogenic dipeptide substrate; higher = more effect of the substance).
Set-up: species or system P. falciparum D10 trophozoite lysates; single well
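Note: 30 min substrate incubation versus DMSO and 10 µM JCP410 controls.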

Sequence of DPAP1 (Q8IIJ9 whole entry, looked up): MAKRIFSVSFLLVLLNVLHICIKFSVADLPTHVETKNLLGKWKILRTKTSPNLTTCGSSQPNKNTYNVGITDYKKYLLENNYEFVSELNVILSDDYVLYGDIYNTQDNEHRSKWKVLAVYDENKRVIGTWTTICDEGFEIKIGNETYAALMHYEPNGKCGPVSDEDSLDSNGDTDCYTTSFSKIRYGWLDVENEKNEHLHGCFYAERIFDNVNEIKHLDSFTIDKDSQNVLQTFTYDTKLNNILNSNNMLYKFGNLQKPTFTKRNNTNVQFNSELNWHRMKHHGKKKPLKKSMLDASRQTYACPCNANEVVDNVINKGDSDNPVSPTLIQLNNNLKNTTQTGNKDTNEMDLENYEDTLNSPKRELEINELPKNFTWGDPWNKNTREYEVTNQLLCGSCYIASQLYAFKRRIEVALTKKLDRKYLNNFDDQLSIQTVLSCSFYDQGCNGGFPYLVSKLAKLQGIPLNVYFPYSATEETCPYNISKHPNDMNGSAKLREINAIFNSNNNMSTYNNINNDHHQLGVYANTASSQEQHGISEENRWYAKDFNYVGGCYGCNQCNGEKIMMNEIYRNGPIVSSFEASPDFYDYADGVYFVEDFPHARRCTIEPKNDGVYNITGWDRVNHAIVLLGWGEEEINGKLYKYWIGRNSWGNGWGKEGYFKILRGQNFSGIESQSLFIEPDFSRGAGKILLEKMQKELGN

Compound | % Inhibition @ 10 uM [%]
COCCCNC(=O)C1CCN(S(=O)(=O)c2ccc(Cl)cc2)CC1 | -3.74
C=CCn1c(SCC(=O)NCCCO)nc2sc3c(c2c1=O)CCCC3 | -0.725
CC(C)CCN1C(=O)c2ccc(C(=O)Nc3ccc4c(c3)OCO4)cc2C1=O | 3.5
COc1ccc2c(Sc3ccccc3)c(C(=O)NCc3cccnc3)[nH]c2c1 | 12
Cc1nc(SCC(=O)Nc2sc3c(c2C#N)CCCC3)[nH]c1CC(C)C | -0.92
Cc1ccc(NCN2C(=O)c3ccccc3C2=O)cc1Cl | 1.52
CCc1nc2ccccc2c(NC(=O)CNCCc2ccc(O)cc2)c1C | -0.216
CCCNC(=O)c1nn2c(C(F)(F)F)cc(-c3ccco3)nc2c1Br | -0.132
O=C(COCc1cc(-c2cccs2)on1)NC1CCCC1 | -1.04
COC(=O)C(NS(=O)(=O)c1ccc([N+](=O)[O-])cc1)c1ccccc1 (stereo not shown) | -1.96
CCCN(CCC)CCCNC(=O)CCNS(=O)(=O)c1ccc(Br)cc1 | -0.519
COc1ccc2nc(NC(=O)C3CCN(S(=O)(=O)c4c(C)n[nH]c4C)CC3)sc2c1 | -2.41
CCC(Cc1ccccc1)NS(=O)(=O)c1c(C)nc2scc(C)n2c1=O (stereo not shown) | -5.67
CCCCNC(=O)Cn1c(=O)cc(C(F)(F)F)c2c(C)nn(-c3cccc(Cl)c3C)c21 | -3.6
CC1=CC(=C2C(=O)c3ccccc3C2=O)C=C(C)O1 | 2.03
CCN1CCN(Cc2ccc(-c3ccccc3)cc2)CC1 | -3.71
CCOC(=O)C1CCCCN1C1CCC(c2ccccc2)CC1 (stereo not shown) | 5.01
N#CCCCCn1c(-c2cncs2)nc2ccccc21 | -0.759
Cc1cccc2c1Oc1nc(-c3ccccc3O)nc(O)c1C2 | 3.92
O=c1[nH]c2ncccc2c(=O)n1CCc1ccccc1 | -3.44
CC(=O)Nc1ccc(S(=O)(=O)N2CCN(C)CC2)cc1 | 6.33
CCCCn1c(N=Nc2c(O)[nH]c3ccccc23)nc2c1c(=O)[nH]c(=O)n2C | -0.053

Compound | % Inhibition @ 10 uM [%]
COc1ccccc1N1CCN(Cc2cccnc2)CC1 | -4.61
COc1cc2sc(C(=O)Nc3ccccc3)c(Cl)c2cc1OC | 3.46
COc1ccc(-c2cc(C(F)(F)F)n3nc(C(=O)NCCCn4ccnc4)cc3n2)cc1 | 6.12
COC(=O)C1=C(N)Oc2cc(C)n(Cc3ccco3)c(=O)c2C1c1ccc(Cl)cc1 (stereo not shown) | -1.11
O=C(NCCc1cccs1)c1ccc(CS(=O)Cc2ccc(Cl)cc2)o1 (stereo not shown) | -0.154
N#CCC(=O)N1CCN(Cc2ccc3c(c2)OCO3)CC1 | 2.03
CC1(C)CC2=Nc3ccccc3NC(c3c[nH]c4ccccc34)C2=C(O)C1 (stereo not shown) | -8.72
Nc1nc(SCc2nc(-c3ccccc3)no2)nc(O)c1-c1ccccc1 | -5.41
CC1(C)CC2=Nc3ccccc3NC(c3ccccn3)C2=C(O)C1 (stereo not shown) | 2.15
O=C1c2cccc3cccc(c23)C(=O)N1CCN1CCN(S(=O)(=O)c2ccc(Cl)cc2)CC1 | 5.97
C/C=C/[C@H]1OC(=O)N(Cc2ccccc2)[C@H]1c1ccccc1 | -0.68
CCc1ccc(S(=O)(=O)N2CCN(c3ccccc3)CC2)cc1 | 6.21
CC(=O)C1=C(C)OC(N)=C(C#N)C1c1ccco1 (stereo not shown) | 0.343
Cc1cccc(NC(c2ccccc2F)c2ccc3ccc(C)nc3c2O)n1 (stereo not shown) | 0.884
CCOC(=O)c1cc2c(=O)n3ccccc3nc2n(CC2CCCO2)/c1=N/C(C)=O (stereo not shown) | -3.78
COc1cc2c(cc1OC)CN(C(=O)CSc1nc(C)c(C)c(C)c1C#N)CC2 | 6.97
Cc1ccc(-c2cc(C(F)F)n3ncc(C(=O)NCc4ccccc4F)c3n2)cc1 | -10.9
COc1ccc(N2C(=O)CC(SC(C)C)C2=O)cc1 (stereo not shown) | -0.553
CCOc1ccc(S(=O)(=O)Nc2cc3sc(=O)oc3c3ccccc23)cc1 | 5.87
Cc1nc2n(n1)C(c1ccccc1)C=C(c1ccccc1)N2 (stereo not shown) | -4.15
CCOc1ccccc1NC(=O)CN(Cc1ccccc1)S(C)(=O)=O | -1.35
CC(C)(C)NC(=O)c1cc(-c2ccccc2)[nH]n1 | -2

Compound | % Inhibition @ 10 uM [%]
CC(C)C[C@H](NC(=O)c1csc(-c2cccc([N+](=O)[O-])c2)n1)C(=O)NCC#N | 7.72
CC1CC(C)CN(C2CCN(C)CC2)C1 (stereo not shown) | -5.44
C=CCN1C(=O)C2(NC(CCSC)C3C(=O)N(Cc4ccccc4)C(=O)C32)c2ccccc21 (stereo not shown) | -7.28
CC(C)C[C@H](NC(=O)OCc1ccccc1)C(=O)NC(C#N)c1ccc(Br)s1 (stereo partly shown) | 4.63
COC(=O)C1=CNC=C(C(=O)OC)C1c1ccccc1OC(C)C | -2.87
O=C(CN(Cc1ccc(F)cc1)S(=O)(=O)c1ccccc1)Nc1ccc(Br)cc1F | 2.27
COc1cccc(OC)c1C(=O)Nc1cccc(F)c1 | -3.39
NC(=O)CC1NC(=O)c2ccccc21 (stereo not shown) | 4.63
CCCC(=O)Nc1nn2c(-c3ccccc3)nnc2s1 | -2.17
Cc1cc(C(F)(F)F)nn1CC(=O)N(C)C1CCCCC1 | -2.24
Cc1nc(N2CCCCC2)c2c3c(sc2n1)CC(C)CC3 (stereo not shown) | -0.511
O=C(N/C(=C\c1ccccc1)C(=O)N1CCOCC1)c1cccc(Br)c1 | 0.674
Cc1cccc(C(=O)OCC(=O)c2ccc(Cl)cc2)c1 | -5.36
Cc1c(CNCc2ccccc2)c(C(=O)O)c(C)n1Cc1ccccc1 | 1.41
O=C(O)c1cc(Cl)c(Cl)cc1C(=O)Nc1ccccc1 | -1.51
COc1cccc(C(=O)N2CCN(Cc3ccccn3)CC2)c1 | 5.55
Cc1cc2ccccc2c(=O)n1CC(=O)NCC(=O)N(C)Cc1ccccc1 | -4.67
CC1CCN(Cc2c(O)ccc3c(=O)c(-c4ccc5c(c4)OCCO5)coc23)CC1 | -1.82
CCc1sc(C2C(C#N)=C(N)OC3=C2C(=O)CCC3)cc1Br (stereo not shown) | -4.03
Cc1ccc(Oc2ccc3c(c2)C(=O)N(CC(=O)O)C3=O)cc1 | -4.75
